# The other results are listed elsewhere or left out.
# T1: UNK ZnF1-3 (human, UniProt Q9C0B0 31-174)
# T1 sequence: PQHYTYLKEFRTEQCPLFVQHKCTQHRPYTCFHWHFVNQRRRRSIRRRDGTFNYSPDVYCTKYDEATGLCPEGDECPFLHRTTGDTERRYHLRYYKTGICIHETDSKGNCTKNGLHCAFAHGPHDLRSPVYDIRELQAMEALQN
# B1: 102186782_102191557_1493_CDS_ENSMUSG00000021182_ENSMUST00000068411|mouse|control|control (ssRNA)
# RNA: GGGAGUUCUACAGUCCGACGAUCCUUCAGGAUGCGGCUGGAGGCGCACUCAUUCAGCUCAAAGACGAAGGAUUUCCUGGAGGCGUCGGACAAGUCUGCGUUCUUGGACAGCUGCUCCAGUUCCCAGCCAAGGUGGGCCGACUCCAACAGAGGAUUGAGCAUCA
# B2: chr2:47387770:47387771:-_ENSG00000143933_ENST00000272298|hu_mus|hu_hu_hu_mus_True|8_28 (ssRNA)
# RNA: GGGAGUUCUACAGUCCGACGAUCAAGGUUUAAGGACAAUGACAGUAAGAUAAGGGAAGAAAACAUGGAGGAAUGAAGUCCUAAUUACUAUACAUGCAUAUUUUUUGGACAGUAGGGGGGGGAACCUUACAGAUAAGAGUUACACAACAGAGGAUUGAGCAUCA
# B3: chr18:35732044:35732045:+_ENSMUSG00000037236_ENSMUST00000166793|perfect_dup|motif|central (ssRNA)
# RNA: GGGAGUUCUACAGUCCGACGAUCAAUUUGGGGCAAGUUCUCAGGAGUAAUCUUGUCCUCUGGAUAGCGACUCAGUUCAUCGGAGUCUCUAGCAGACAGACCAAAGCUGGCCAAAAUAUUACUGGCCUGGUCUGUAUCUCCACGCAACAGAGGAUUGAGCAUCA
# B4: chrX:41029285:41029286:+_ENSG00000124486_ENST00000378308|hu_hu|motif|central (ssRNA)
# RNA: GGGAGUUCUACAGUCCGACGAUCUGUAUGAGACCAUACCUCCAAGUCAUCAACCUGUCUGCCCUGGUUUGGAAAUCGAACGGCAAAAGAGAGGUGUUUACCGCGGAAUGCUCUCGACAUAGGGAGAAUUGUUCUUUCCUCAUGCAACAGAGGAUUGAGCAUCA
# B5: chr8:95500983:95500984:-_ENSG00000164944_ENST00000437199|hu_hu|FALSE|FALSE (ssRNA)
# RNA: GGGAGUUCUACAGUCCGACGAUCAAAAGGAUUUUUAUCGUGUAAAGGAGCGUACAUGACGACCUCUACCACUGCCUCCACUAACAAACUUUCCUCUUGAGCCUCCACUGCCGCUAUUUGCACUAGCCCAGGAAGGUCCAAGUCCAACAGAGGAUUGAGCAUCA
# B6: chr4:144465060:144465061:+_ENSG00000153147_ENST00000283131|hu_mus|motif|central (ssRNA)
# RNA: GGGAGUUCUACAGUCCGACGAUCAUAGUCUUCUCCUUCAAAGUUAUAAACACUGGACUCUGUGUCCAUCGUAAAGUUUCGGAGUGAACUUUCACCCAUCUUGGAGAGCUUUUCGUUCAUUUCUGCAGUCUUCUUUGCACCUCUCAACAGAGGAUUGAGCAUCA
# B7: chr1:109605286:109605287:-_ENSG00000197780_ENST00000461096|hu_mus|hu_hu_hu_mus_True|8_8 (ssRNA)
# RNA: GGGAGUUCUACAGUCCGACGAUCAAGUUUCAGAGUAACAUUCAGUAACCUCUUUAAAUGCAAUUAUCCUUAUUAUAAGCUAAGCAGAAUAAUAAUUUAAUACCGUAAGUGAACUACACACAAAGCCGUGUAUUCAGAAAUGGUCAACAGAGGAUUGAGCAUCA
# B8: chr5:50689391:50689392:+_ENSG00000016082_ENST00000230658|hu_hu|FALSE|FALSE (ssRNA)
# RNA: GGGAGUUCUACAGUCCGACGAUCAAUAGGACUGGCUACCAUGCUGUUAGGUGUAUCUGGAAGUUGAGAGGACAUUGAUGCUACUUCACUGCCAGUGGAAUUAGAGCCCGGUCCUCCUUCUGAAAAAUUGACCAGUUGCUGAAACAACAGAGGAUUGAGCAUCA
# B9: chr10:92717539:92717540:-_ENSMUSG00000008398_ENSMUST00000008542|mus_mus|motif|central (ssRNA)
# RNA: GGGAGUUCUACAGUCCGACGAUCCUGGAAAAGUGUGUUCGGCCCUUGCAGCCUGGCAGGACUCAGUGGGGCGACAGGACGGAGGCUGCUCCAGAAGUGUAUGCUGGGCAGCAGCGGACUCGAGGCCAGAAACAGUCCACUUGGCAACAGAGGAUUGAGCAUCA
# B10: chr2:230668852:230668853:-_ENSG00000153827_ENST00000389045|hu_hu|motif|central (ssRNA)
# RNA: GGGAGUUCUACAGUCCGACGAUCUAUCCUAAGAAUUGCUCUAAGGCACUUAUGUCUGACCGCAGGUCCUGCUGAGGAACGGUACACUUCAUAAAGAACACCAAAUAAUGUCUUAAUAAAAGACUUAGCCAGUUCCGGAUCCUCCAACAGAGGAUUGAGCAUCA
# B11: chr9:79619141:79619142:-_ENSMUSG00000032328_ENSMUST00000034878|mus_mus|FALSE|FALSE (ssRNA)
# RNA: GGGAGUUCUACAGUCCGACGAUCAAAUUAAAUGGUGAUGUCAGCAGUGUUACUACUGUUUCUAUAUUUAUGAUUAAUUACUAGCAGUACAACUCCCAGAAGGAAAGAGAUGGAUCCAAUAGUGAUGUAAGCAAUUCCCAAAAACAACAGAGGAUUGAGCAUCA
# B12: chr8:3496845:3496846:+_ENSMUSG00000047264_ENSMUST00000061508|mus_hu|FALSE|FALSE (ssRNA)
# RNA: GGGAGUUCUACAGUCCGACGAUCAGUAGGGCUGGGGGUGGAUCUGGAGCCGGGGAGGGGUUUGGAGCUGGGAUCCGGCAGAGUGCCCGGCCCAGAGCCAGGGUCAGGGUUGCGGCCAGAGCUGGUGCCAGGGCUGAGGCCCAACAACAGAGGAUUGAGCAUCA
# B13: chr2:31472812:31472813:+_ENSMUSG00000026843_ENSMUST00000055244|mus_hu|FALSE|FALSE (ssRNA)
# RNA: GGGAGUUCUACAGUCCGACGAUCUCAGUACAUUUCAAACGGAAUGUCCCUCAGGUCAAUUAGAAAUGCAAGAAAAAAUAGCUUCAAUUCCGUUUUUUUUCCUUUAAAAAUACAUGUUAUCUGUACAAGAUACACUACAGUAAACAACAGAGGAUUGAGCAUCA
# B14: chr5:10264876:10264877:+_ENSG00000150753_ENST00000503026|hu_mus|FALSE|FALSE (ssRNA)
# RNA: GGGAGUUCUACAGUCCGACGAUCGUAACUGCAGACGCAGCACAACAGACACACCCUUUAUUUAGUCACAGUGGUAAAUGGUACAGUUUAUUCUUCAGAUUCUCCAGGCUUACGGAUGUCAUCAAUCUUCAGAAUCAUCCUAACCAACAGAGGAUUGAGCAUCA
# B15: chr7:134094464:134094465:+_ENSMUSG00000030683_ENSMUST00000106335|mus_mus|FALSE|FALSE (ssRNA)
# RNA: GGGAGUUCUACAGUCCGACGAUCCUCGCUGUCACUUUCCCUCUGCGUCCUUUUAUCUUUUCCUUUAAUUUUGCUUUCCUGCUAAGGGUCGGCAAAGGAAGGCAAAUUUUCUUCCUUUGGGAUGGAGAAGCAGAAUUGGCCUAGCAACAGAGGAUUGAGCAUCA
# B16: chr9:70551142:70551143:+_ENSMUSG00000054693_ENSMUST00000067880|mus_hu|FALSE|FALSE (ssRNA)
# RNA: GGGAGUUCUACAGUCCGACGAUCACGCUGGUGUUUUUGGUGUAAUGAAUCCACAUUGUAAGAUAAUCCUUCAUAAUGUCUGAUAUAUUUAUUUAAAGGAUUCCCAUACUGACCUCCCAUCCCCGCCGCCCAGGAGAGGAGCAGCAACAGAGGAUUGAGCAUCA
# B17: chrX:39630310:39630311:+_ENSMUSG00000025862_ENSMUST00000069619|mus_hu|FALSE|FALSE (ssRNA)
# RNA: GGGAGUUCUACAGUCCGACGAUCAACAUACAACAUACUGUAGGUUUAUUUUUAUUCAAAAAGUUACUGUCUCAAGACAUAAAUACAAAUCAGAAAACAGUACAAUUAGGACAAUAGAAUGUGGAGGACAACAGGUUAGAGUAACAACAGAGGAUUGAGCAUCA
# B18: chr18:33747085:33747086:+_ENSG00000134759_ENST00000351393|hu_hu|FALSE|FALSE (ssRNA)
# RNA: GGGAGUUCUACAGUCCGACGAUCAGACCAAAUAAUUCUACUGUGCACAGAAGUAAUUUUGUUGGUGAAGGCAAAAAGACUAAAAACUGGCUCGAACUCAGGUGAGAUUGUAUCCUGCUUUUUCCACAAUGACCAGGUUCGAUCCAACAGAGGAUUGAGCAUCA
# B19: chr6:38652254:38652255:-_ENSG00000124767_ENST00000373365|hu_mus|FALSE|FALSE (ssRNA)
# RNA: GGGAGUUCUACAGUCCGACGAUCCGAGAACUUCAUAGCAGGGAAGUCAAGCUUCUGCAGGAGGGUCAGUCCAAGAACCCUCGUAUAAAAAUCCAGGGACUUCUUAGGAUCCUUAAUUCUUAGCAUCGUUUGCUGCAGUAGAAACAACAGAGGAUUGAGCAUCA
# B20: chr7:54825262:54825263:-_ENSG00000132432_ENST00000352861|hu_hu|hu_hu_hu_mus_False|18_98 (ssRNA)
# RNA: GGGAGUUCUACAGUCCGACGAUCCUGCCGGCUGGGCACAAACUGCAGCAUUACCUGAUCCAUGUUUGUUGGAUGGCGGAUUGAGAGCGUAGAGACACGUAGCUCAGGAGAGAACCGGAUGGAGGCCAACCGGAAGCUGGCAACCAACAGAGGAUUGAGCAUCA
# B21: chr21:38595834:38595835:-_ENSG00000157538_ENST00000309117|hu_hu|FALSE|FALSE (ssRNA)
# RNA: GGGAGUUCUACAGUCCGACGAUCCAUUAAAAAUGGUUUCUUCCUUUAAAAUUUCCCAGAAAGUGUGGCCUCUGUUUUCUGCUACUCAGUUUAAACACAUCAUCAAGGAUAGAUAAUUAAUGUCAGGUGAGCAUAAAAGGAGAUCAACAGAGGAUUGAGCAUCA
# B22: 68295611_68295731_2284_3pUTR_ENSMUSG00000048922_ENSMUST00000150006|mouse|control|control (ssRNA)
# RNA: GGGAGUUCUACAGUCCGACGAUCGUGGAGCUAAGCAUUCACUCUCUUUCUCACACUUUAGAUUCAUACUUUCUGAAACAAUAAGGAUCUCACAAGGAUUUUCCAAAUUUUGACCAGCCUUGAAAAGGUCCUGGCUCUGAGGGCCAACAGAGGAUUGAGCAUCA
# Biological target: T1, UNK ZnF1-3
# Assay: nsRBNS (natural sequence RNA bind-n-seq); RBNS binding buffer (assumed for nsRBNS): 25 mM Tris pH 7.5, 150 mM KCl, 3 mM MgCl2, 0.01% Triton X-100, 500 ug/ml BSA, 20 U/ml SUPERase-In, 4 C; UNK is unkempt and MSI1 is Musashi-1; names of the RNAs are library labels; protein concentration not given here; high values mean tight binding
row,Binder,binding signal [enrichment R]
1,B1,0.976
2,B2,1.8
3,B3,0.432
4,B4,0.979
5,B5,0.819
6,B6,0.318
7,B7,0.551
8,B8,1.53
9,B9,1.3
10,B10,1.1
11,B11,1.51
12,B12,1.62
13,B13,0.767
14,B14,1.36
15,B15,0.644
16,B16,1.25
17,B17,1.97
18,B18,1.9
19,B19,0.863
20,B20,2.13
21,B21,1.49
22,B22,0.964

# From article PMC12136788
